Consider 115 sequences from the BET-seq Pho4 binding data (Le et al. 2018).

Some of the results follow. The energies were worked out here from pooled read counts, against the library average; single values are noisy.

This test addresses T1, Pho4 (S. cerevisiae) (UniProt P07270).
T1 sequence: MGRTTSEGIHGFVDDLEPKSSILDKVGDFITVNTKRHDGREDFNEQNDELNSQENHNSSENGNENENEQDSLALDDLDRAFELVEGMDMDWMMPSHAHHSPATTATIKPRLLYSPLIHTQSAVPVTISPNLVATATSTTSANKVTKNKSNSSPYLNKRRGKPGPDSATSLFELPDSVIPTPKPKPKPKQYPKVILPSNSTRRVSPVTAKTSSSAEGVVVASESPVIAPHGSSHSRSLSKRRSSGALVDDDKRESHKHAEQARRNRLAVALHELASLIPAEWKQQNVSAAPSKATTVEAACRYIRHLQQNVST
As to the kind of experiment: relative binding free energy (BET-seq); higher = weaker binding. Conditions: reference: library average.
Take GTTGGCACGTGGCGAT: the “relative binding free energy” value was -0.02 kcal/mol. On to AGTTGCACGTGGGGTA, for which the “relative binding free energy” value is -0.28 kcal/mol.

Regarding AAAGACACGTGTGGAG, the “relative binding free energy” value turned out to be 0.16 kcal/mol. With ACGCTCACGTGGGGTT the figure was -0.07 kcal/mol. With ATGAGCACGTGTTGAA the figure was -0.09 kcal/mol; with TAGGACACGTGTCGGG, 0.13 kcal/mol; with GTGCGCACGTGGTCTG, -0.23 kcal/mol. With CGAAGCACGTGGGGCG the figure was -0.28 kcal/mol; with GTGTACACGTGGGGTC, -0.03 kcal/mol. Take TGTGACACGTGGATAA: the “relative binding free energy” value stood at 0.14 kcal/mol. On to TGGGGCACGTGTTTGA, for which the “relative binding free energy” value was -0.04 kcal/mol. With TTGAGCACGTGTTTTT the figure was -0.01 kcal/mol; with GCGTTCACGTGGGTAA, 0.16 kcal/mol. With CAAGACACGTGTGGGT the figure was -0.09 kcal/mol; with TGCAGCACGTGAGAGG, 0.17 kcal/mol; with TGTATCACGTGGTAGT, 0.06 kcal/mol. Consider TAGAGCACGTGGATTT, for which the “relative binding free energy” value is -0.03 kcal/mol. With GGGGTCACGTGCGTCG the figure was 0 kcal/mol; with TGTGACACGTGGGTAA, -0.27 kcal/mol. With GGGTCCACGTGTGGTA the figure was 0.28 kcal/mol; with GTGAGCACGTGAGGAG, 0.32 kcal/mol; with GTGATCACGTGGAGGA, 0.2 kcal/mol. Under GGGCTCACGTGGAGTA stands 0.17 kcal/mol; under GTCGTCACGTGACGGT, 0.16 kcal/mol. As to AAGTTCACGTGCGGAT, the “relative binding free energy” value was 0.22 kcal/mol. With AGGGGCACGTGCTTGC the figure was -0.25 kcal/mol; with GGATGCACGTGTATCT, 0.05 kcal/mol; with GAGAGCACGTGGGTGC, -0.22 kcal/mol. With TCGGTCACGTGAAGCG the figure was 0.42 kcal/mol.

As to GTAGACACGTGTTGGC, the “relative binding free energy” value stood at 0.02 kcal/mol. Take GATTGCACGTGCTGTG: the “relative binding free energy” value amounted to 0.04 kcal/mol.

With TTCGGCACGTGTGCAT, the “relative binding free energy” value was determined as 0.01 kcal/mol. Under TCGTTCACGTGTGGTA stands 0.35 kcal/mol; under CAAGGCACGTGGGAGA, -0.08 kcal/mol; under ATCGTCACGTGTATTG, 0.04 kcal/mol. Under ATAGGCACGTGTTTAT stands -0.15 kcal/mol.

With GCGGCCACGTGTGGGT, the “relative binding free energy” value came to 0.04 kcal/mol.

With CAAGTCACGTGAGTGG, the “relative binding free energy” value turned out to be 0.28 kcal/mol. With GGTCACACGTGGGAGC the figure was 0.06 kcal/mol; with ATTGGCACGTGGTTTC, -0.08 kcal/mol; with ACGGGCACGTGAGGCG, -0.07 kcal/mol. Under TGAGACACGTGGGGAA stands 0.03 kcal/mol; under GCCGTCACGTGGGGTT, -0.17 kcal/mol; under TCTGACACGTGTGGGG, 0.06 kcal/mol. Under AGGGACACGTGCGTGT stands -0.15 kcal/mol; under AGTGGCACGTGAAGAT, 0.15 kcal/mol.

Consider CTTGTCACGTGTTTTT, for which the “relative binding free energy” value came to 0.22 kcal/mol. Under TAACTCACGTGTGTAG stands 0.27 kcal/mol.

For the sequence GAGTACACGTGGGAGC, the “relative binding free energy” value was 0.07 kcal/mol.

TTAAACACGTGATGGG: the “relative binding free energy” value worked out at 0.07 kcal/mol.

For GGTTACACGTGATTGA, the “relative binding free energy” value was found to be 0.21 kcal/mol. Turning to GCGAGCACGTGTAGTT, the “relative binding free energy” value is 0 kcal/mol. As for GGGCGCACGTGGTGGC, the “relative binding free energy” value is -0.14 kcal/mol. With CGAGGCACGTGGGAAG the figure was -0.34 kcal/mol.

Consider AAGGTCACGTGAAGTG, for which the “relative binding free energy” value is 0.22 kcal/mol.

As to TACTTCACGTGTGAGG, the “relative binding free energy” value was 0.27 kcal/mol. With GGTGTCACGTGGGTCT the figure was -0.05 kcal/mol; with TGATGCACGTGGGTCT, -0.05 kcal/mol.

Turning to AGGATCACGTGTTGGA, the “relative binding free energy” value is 0.28 kcal/mol.

Turning to GTAGGCACGTGTGTAA, the “relative binding free energy” value is -0.04 kcal/mol.

With GGCGGCACGTGAGTCA, the “relative binding free energy” value came to 0.2 kcal/mol.

Consider TTTCGCACGTGTTGCT, for which the “relative binding free energy” value was -0.1 kcal/mol. With GGGTTCACGTGCTGTG the figure was 0.4 kcal/mol; with GCAGTCACGTGGTGCT, 0.02 kcal/mol; with GAGTACACGTGGTTTA, 0.06 kcal/mol. Under TGGAGCACGTGGATCT stands -0.04 kcal/mol; under AGGTGCACGTGTTGTT, -0.1 kcal/mol. Under GGTTGCACGTGATTCT stands 0.27 kcal/mol; under GCATGCACGTGGGAGG, -0.07 kcal/mol; under GTTAACACGTGGGGTA, -0.09 kcal/mol. Turning to CATGTCACGTGATGGA, the “relative binding free energy” value came to 0.18 kcal/mol. With TTTTGCACGTGCCGTT the figure was 0.01 kcal/mol. Under TTTTACACGTGGTTTC stands 0.13 kcal/mol. Under TATTACACGTGTGTCT stands 0.1 kcal/mol; under AAATACACGTGGGTTG, -0.12 kcal/mol; under CGTTACACGTGTTTTT, 0.04 kcal/mol. On to AAATGCACGTGTAGTT, for which the “relative binding free energy” value was determined as 0 kcal/mol. With CTTGACACGTGCGGTG the figure was -0.16 kcal/mol. With TGGGGCACGTGATTAT the figure was -0.02 kcal/mol; with TTATTCACGTGGGGAG, 0.14 kcal/mol; with AAGGTCACGTGGGAAT, 0.09 kcal/mol. Under TGTTACACGTGTACAT stands 0.18 kcal/mol; under TTTTTCACGTGGGCAC, 0.22 kcal/mol; under TCGGACACGTGCGGGT, -0.09 kcal/mol.

On to GGCCGCACGTGTGGGA, for which the “relative binding free energy” value came out at 0.01 kcal/mol.

With ATAAACACGTGGGAGG, the “relative binding free energy” value is 0.08 kcal/mol. With GGCGACACGTGTTTTG, the “relative binding free energy” value worked out at 0.13 kcal/mol. With GGTAGCACGTGAGATA the figure was 0.18 kcal/mol; with TTATTCACGTGATGCG, 0.3 kcal/mol; with GCGGGCACGTGTAATG, 0.04 kcal/mol. Under AGTTACACGTGTAAAG stands 0.13 kcal/mol; under TGTGCCACGTGTTAAG, -0.09 kcal/mol; under TATAACACGTGAGAGT, 0.18 kcal/mol. In the case of TCCATCACGTGGTTTA, the “relative binding free energy” value was found to be 0.32 kcal/mol. With CTGTACACGTGTGGGG the figure was 0.16 kcal/mol. With GACTTCACGTGGTGTG the figure was 0.2 kcal/mol; with TGAGGCACGTGACTTG, 0.12 kcal/mol. Consider ATGCACACGTGCGGGT, for which the “relative binding free energy” value was -0.13 kcal/mol. For the sequence GCTTTCACGTGTAATG, the “relative binding free energy” value worked out at 0.36 kcal/mol. Under GGTGGCACGTGTGTAG stands -0.06 kcal/mol; under ATGGGCACGTGGACTG, -0.05 kcal/mol; under TGTGTCACGTGGAAAG, 0.11 kcal/mol.

As for GCTTTCACGTGTTGGT, the “relative binding free energy” value was found to be 0.37 kcal/mol. Under AAATTCACGTGTTTGC stands 0.16 kcal/mol; under TCGTTCACGTGCAGTG, 0.47 kcal/mol; under AGAGGCACGTGGGCGG, -0.23 kcal/mol. For the sequence ACGGGCACGTGGGGCA, the “relative binding free energy” value is -0.09 kcal/mol. GCGGACACGTGATGGG: the “relative binding free energy” value was -0.06 kcal/mol. With TGCGGCACGTGTTGGC the figure was -0.19 kcal/mol; with TAGATCACGTGTCTGG, 0.19 kcal/mol.

For the sequence ATTGGCACGTGTGAGA, the “relative binding free energy” value is -0.05 kcal/mol. Consider GGGTGCACGTGCGGGT, for which the “relative binding free energy” value was -0.03 kcal/mol. With TGTGGCACGTGAAGAC the figure was 0.22 kcal/mol; with AGATGCACGTGGGACG, -0.21 kcal/mol; with ATGTACACGTGGTGGT, -0.14 kcal/mol.
